PubChem BioAssay AID588579 (National Center for Advancing Translational Sciences (NCATS), 2011)
Where “and” joins values, the source holds several entries; their conditions need not be identical. Identical values can stand only once. In all, about 400,000 compounds went through this assay and about 2,200 (0.55%) were called active. The shares of active, inactive and inconclusive entries below differ from those in the screen. Calls follow the shape of the dose curve; as a rule, active = well fitted inhibition curve with a large enough effect; inconclusive = small, poorly fitted or top-dose-only effect, or another doubt; inactive = no such curve, though single readings can be large or run the other way. Potencies beside an inconclusive call are fits to weak or partial responses and may not hold up.

molecular target: DNA polymerase kappa (Homo sapiens) (UniProt Q9UBT6); test: qHTS for Inhibitors of Polymerase Kappa; conditions: purified Pol kappa, fluorescent DNA synthesis assay, 10 min; series mostly up to 107 µM
Method in brief: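 10 nM Pol kappa preincubated 15 min at room temperature with compounds, then reaction started with substrate at 50 nM final. Fluorescence read kinetically at 0 and 10 min; buffer-only wells served as negative control.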
% is scaled to controls: 0 for no effect and ±100 for the full control effect; potency is read from the fitted curve at half-maximal effect; tags tell the direction and shape of the fitted curve.

Sequence of UniProt Q9UBT6 (Q9UBT6 whole entry, looked up): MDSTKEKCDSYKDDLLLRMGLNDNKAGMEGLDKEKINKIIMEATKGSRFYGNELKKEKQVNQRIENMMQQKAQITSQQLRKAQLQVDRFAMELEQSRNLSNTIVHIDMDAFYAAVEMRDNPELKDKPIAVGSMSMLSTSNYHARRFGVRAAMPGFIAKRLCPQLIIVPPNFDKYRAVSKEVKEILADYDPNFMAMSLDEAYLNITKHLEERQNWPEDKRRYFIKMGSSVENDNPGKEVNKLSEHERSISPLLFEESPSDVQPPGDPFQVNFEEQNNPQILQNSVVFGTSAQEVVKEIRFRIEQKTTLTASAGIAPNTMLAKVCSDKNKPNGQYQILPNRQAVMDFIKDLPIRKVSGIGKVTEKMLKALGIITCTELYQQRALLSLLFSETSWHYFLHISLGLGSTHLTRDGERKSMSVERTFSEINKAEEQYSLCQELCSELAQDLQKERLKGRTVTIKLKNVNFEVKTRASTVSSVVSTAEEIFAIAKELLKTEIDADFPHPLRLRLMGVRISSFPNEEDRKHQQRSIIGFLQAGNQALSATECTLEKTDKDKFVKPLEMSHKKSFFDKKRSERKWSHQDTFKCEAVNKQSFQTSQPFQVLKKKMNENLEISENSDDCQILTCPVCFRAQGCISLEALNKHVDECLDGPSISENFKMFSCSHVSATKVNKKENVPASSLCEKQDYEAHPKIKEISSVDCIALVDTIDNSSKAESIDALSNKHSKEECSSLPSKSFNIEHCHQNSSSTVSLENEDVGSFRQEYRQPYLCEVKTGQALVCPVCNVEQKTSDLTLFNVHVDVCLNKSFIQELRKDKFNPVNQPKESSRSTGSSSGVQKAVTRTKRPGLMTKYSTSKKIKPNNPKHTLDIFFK

Row | SMILES | Potency | activity, negative = inhibition
1 | O=C(Nc1ccc(Br)cc1)c1cccc(S(=O)(=O)Nc2ccc(Br)cc2)c1 | inconclusive: 18.9 µM [inhibitor, single point] | 
2 | CCCn1c(N)c(C(=O)COC(=O)CCNS(=O)(=O)c2ccccc2F)c(=O)[nH]c1=O | inconclusive: 79.4 µM [inhibitor, partial curve, poor fit] | 
3 | CCN(C(=O)CSc1nnc(-c2cc(OC)c(OC)c(OC)c2)o1)c1ccccc1 | inconclusive: 89.1 µM [inhibitor, single point] | 
4 | CN(C)CC1CCn2c(c(C3=C(c4cn(C)c5ccccc45)C(=O)NC3=O)c3ccccc32)C1 (stereo unspecified) | inconclusive: 37.7 µM [inhibitor, single point] | 
5 | Cc1cc2c(cc1S(=O)(=O)N(C)CC(=O)Nc1ccc(C#N)cc1)OCC(=O)N2 | inactive | 
6 | CCOc1ccccc1NC(=O)Cn1nnc(C(=O)NCc2ccco2)c1N | inconclusive: 89.1 µM [inhibitor, single point] | 
7 | COc1ccc2oc(C(=O)Nc3ccc(N4CCOCC4)cc3)c(C)c2c1 | inconclusive: 100 µM [inhibitor, single point] | 
8 | COC(=O)/C=C/c1ccc2c(c1)S(=O)(=O)N(Cc1ccc(OC)cc1)[C@H]2CC(=O)OC | inactive | 
9 | CCOc1ccc(CNC(=O)c2cnc3sc(N4CCOCC4)nn3c2=O)cc1OC | inactive | 
10 | O=c1cc2c(=O)oc3cc(O)c(O)oc3c2c(O)c1O | active: 2.82 µM | 
11 | CCOc1ccc(C(=O)OCC(=O)NCc2ccco2)cc1OCC | inconclusive: 89.1 µM [inhibitor, single point] | 
12 | Cc1ccc(-n2nc3ccc(NC(=O)c4oc5ccc(C)cc5c4C)cc3n2)cc1 | inconclusive: 79.4 µM [inhibitor, partial curve, poor fit] | 
13 | O=C(COc1ccc(/C=N/NC(=O)c2ccncc2)cc1)Nc1ccc([N+](=O)[O-])cc1 | inactive | 
14 | COc1cc(O)c2c(c1)C(=O)c1cc(C)cc(O)c1C2=O | inconclusive: 39.8 µM [inhibitor, partial curve, poor fit] | 
15 | O=C(NNC(=O)c1cc2cc(Br)ccc2oc1=O)c1ccc(O)cc1O | inconclusive: 79.4 µM [inhibitor, partial curve, poor fit] | 
16 | CC(C)[C@H]1c2ccc(F)cc2CC[C@@]1(CCN(C)CCCc1nc2ccccc2[nH]1)OC(=O)C1CC1 | inconclusive: 39.8 µM [inhibitor, partial curve, poor fit] | 
17 | OC[C@@H](O)C(O)[C@H](O)[C@H](O)CO (stereo partly specified) | inactive | 
18 | O=S(=O)(NCc1ccccc1)c1ccc(Cl)cc1 | inactive | 
19 | CN1C(=O)NC(c2ccccc2)C2=C1CN(Cc1ccco1)C2=O (stereo unspecified) | inconclusive: 79.4 µM [inhibitor, partial curve] | 
20 | Cc1ccc(C(=O)Nc2ccc(S(=O)(=O)Nc3cnc4ccccc4n3)cc2)cc1 | inconclusive: 89.1 µM [inhibitor, partial curve, poor fit] | 
21 | O=C(CSc1nc2sc3c(c2c(=O)n1-c1ccccc1)CCCC3)N/N=C/c1ccc(C(=O)O)cc1 | inconclusive: 20 µM [inhibitor, full curve, poor fit] | 
22 | C=CCNC(=O)[C@@H]1CSC2c3ccc(OC)c(OC)c3C(=O)N21 (stereo partly specified) | inactive | 

Row | SMILES | Potency | activity, negative = inhibition
23 | CCCn1c(N)c(C(=O)CSc2nnc(Cc3cccs3)n2C2CC2)c(=O)n(C)c1=O | inactive | 
24 | Cc1nn(-c2ccccc2)c2nc(C(F)F)cc(C(F)F)c12 | inactive | 
25 | Cc1cc(C)cc(N2CC(O)=C(c3nc4ccccc4c(=O)[nH]3)C2=N)c1 | inconclusive: 79.4 µM [inhibitor, partial curve, poor fit] | 
26 | COc1ccc2c(CC(=O)OCC(=O)Nc3ccc(C)cc3)coc2c1 | inconclusive: 70.8 µM [inhibitor, single point] | 
27 | c1coc(-c2nc(-c3ccco3)c(-c3ccco3)nc2-c2ccco2)c1 | active: 1 µM and active: 8.91 µM | 
28 | C=CCN(CC=C)C(=O)c1cc2ccccc2c(=O)o1 | inactive | 
29 | O=C(c1cc(-c2ccco2)nn1-c1cccc(Cl)c1)N1CCCCC1 | inconclusive: 89.1 µM [inhibitor, single point] | 
30 | NNc1nc2c(Cl)c(Cl)ccc2s1 | inconclusive: 79.4 µM [inhibitor, partial curve, poor fit] | 
31 | O=C(COc1ccc(/C=N/NC(=O)c2cccnc2)cc1)Nc1ccccc1 | inactive | 
32 | Cc1nnc(SCC(=O)Nc2sccc2C#N)s1 | active: 50.1 µM | 
33 | CCc1cc(C(=O)N=Nc2c(O)[nH]c3ccc([N+](=O)[O-])cc23)c2ccccc2n1 | inconclusive: 56.2 µM [inhibitor, partial curve, poor fit] | 
34 | O=C(CN1C(=O)COc2ccc(S(=O)(=O)NC3CCCC3)cc21)NCc1ccc(Cl)cc1 | inactive | 
35 | Cc1cccc(NC(=O)CNC(=O)c2ccc3nc[nH]c3c2)c1C | inconclusive: 100 µM [inhibitor, single point] | 
36 | CCOc1cc(CNS(=O)(=O)c2ccc3c(c2)C(C)(C)C(=O)N3)cc(OCC)c1OCC | inactive | 
37 | O=C(COc1ccccc1[N+](=O)[O-])OCCCOC(=O)COc1ccccc1[N+](=O)[O-] | inactive | 
38 | Cc1ccc(C=C2C(=O)c3ccccc3C2=O)o1 | inconclusive: 89.1 µM [inhibitor, single point] | 
39 | CCOC(=O)C1CCN(C(=O)Cn2nc(CC)n3c(cc4sccc43)c2=O)CC1 | inactive | 
40 | O=C1NC(=S)NC1=Cc1ccco1 | inconclusive: 25.1 µM [inhibitor, full curve, poor fit] | 
41 | COc1ccc(NC(=O)c2ccc(CN(c3cc(Cl)ccc3C)S(=O)(=O)c3ccccc3)cc2)cc1OC | inconclusive: 89.1 µM [inhibitor, single point] | 
42 | Cc1ccc(/C=C2/SC(=O)NC2=S)o1 | active: 17.8 µM | 
43 | O=c1cc(CSc2ccc(Cl)cc2)[nH]c2[nH]n(-c3ccccc3)c(=O)c12 | inconclusive: 89.1 µM [inhibitor, single point] | 
44 | COc1ccc(Cc2c3cc(OC)c(OC)cc3cc[n+]2C)cc1OC | inconclusive: 89.1 µM [inhibitor, single point] | 

Row | SMILES | Potency | activity, negative = inhibition
45 | CC(C)n1nnc2cc(C(=O)O)ccc21 | inconclusive: 39.8 µM [inhibitor, partial curve, poor fit] | 
46 | O=C(NCc1ccccn1)C1CCN(S(=O)(=O)c2cnc[nH]2)CC1 | inconclusive: 89.1 µM [inhibitor, partial curve, poor fit] | 
47 | COc1cc(OC)c(NC(=O)c2cn(C3CCCC3)c(=O)c3c2c2ccccc2n3C)cc1Cl | inactive | 
48 | CCOC(=O)c1[nH]c2ccc(OC)cc2c1NC(=O)CN1CCC2(CC1)OCCO2 | inconclusive: 89.1 µM [inhibitor, single point] | 
49 | c1ccc(N2CCN(CC3CCCCC3)CC2)cc1 | inconclusive: 100 µM [inhibitor, single point] | 
50 | COc1ccc(-c2coc3c2c(C)cc2oc(=O)c(CC(=O)O)c(C)c23)cc1 | inactive | 
51 | CC(=O)N(CC(O)CN(C(C)=O)c1c(I)c(C(=O)NC[C@@H](O)CO)c(I)c(C(=O)NC[C@@H](O)CO)c1I)c1c(I)c(C(=O)NC[C@@H](O)CO)c(I)c(C(=O)NC[C@@H](O)CO)c1I |  | inactive: -4.02% [at 12 µM]
52 | COc1ccc(C2CC(=O)N(CC(=O)Nc3ccc(C)c(Cl)c3)c3ccccc3S2)cc1OC (stereo unspecified) | inconclusive: 89.1 µM [inhibitor, single point] | 
53 | Cc1cccc(CSC2=NN3CCCC(=O)N=C3S2)c1 | inconclusive: 100 µM [inhibitor, single point] | 
54 | Cc1ccc(NC(=O)CSc2nnc(-c3cc4occc4n3C)n2-c2ccccc2C)cc1F | inconclusive: 89.1 µM [inhibitor, single point] | 
55 | O=C(O)c1ccc(Cn2nnc3sc4c(c3c2=O)CCCC4)cc1 | inconclusive: 100 µM [inhibitor, single point] | 
56 | c1coc(-c2nn3c(-c4ccco4)nnc3s2)c1 | inconclusive: 89.1 µM [inhibitor, single point] | 
57 | Cc1cccc(NC(=O)CNC(=O)Cn2ncc(Cl)c(Cl)c2=O)c1C | inconclusive: 56.2 µM [inhibitor, partial curve, poor fit] | 
58 | Cc1ccc2[nH]c(=O)c(-c3nc4ccccn4c3NCc3ccco3)cc2c1 | inconclusive: 89.1 µM [inhibitor, partial curve, poor fit] | 
59 | Cc1ccc(C(CC(=O)Nc2ccc(C)cc2C)N2Cc3ccccc3C2=O)cc1 (stereo unspecified) | inactive | 
60 | CCNC(=O)CCSc1nnc(-c2ccc(O)cc2)o1 | inactive | 
61 | COc1ccc(C2=CC3=C(Br)C(=O)C(C)(OC(=O)c4cccs4)C(=O)C3=CO2)cc1 (stereo unspecified) | inconclusive: 56.2 µM [inhibitor, partial curve, poor fit] | 
62 | O=C(C[n+]1cccc(Cl)c1)c1ccc(O)c(O)c1 | active: 2.24 µM | 
63 | COc1cccc(-c2nc(N)nc(SC)c2C#N)c1 | inconclusive: 79.4 µM [inhibitor, partial curve, poor fit] | 
64 | O=C1c2cc(Br)ccc2N(Cc2ccc(Br)cc2)S(=O)(=O)C1c1cc(Cl)c(Cl)cc1[N+](=O)[O-] (stereo unspecified) | inconclusive: 89.1 µM [inhibitor, single point] | 
65 | COc1cccc(OCC(=O)NNC(=O)c2ccc3ccccc3c2O)c1 | inconclusive: 100 µM [inhibitor, partial curve, poor fit] | 
66 | Cc1ccc2cc3cc(C(=O)N4CCN(C(=O)c5ccco5)CC4)sc3nc2c1 | inconclusive: 89.1 µM [inhibitor, single point] | 
